Reference: patent US20190365891A1 (SCHOLAR ROCK, published 2019)

Tests used:
CD64 (FcgRI) = CD64 (FcgRI) (UniProt P12314 16-292, limits assumed); test: ELISA, relative to the IgG1 variant of Ab1
complement component C1q = target: T1, complement component C1q (UniProt P02745; P02746; P02747); test: ELISA, relative to the IgG1 variant of Ab1
T1 construct: the three subunit chains are from general knowledge

B1: Ab2, Ab1 with germline framework residues, IgG4 (S228P), lambda (antibody)
heavy: QVQLVESGGGVVQPGRSLRLSCAASGFTFSSYGMHWVRQAPGKGLEWVAVISYDGSNKYYADSVKGRFTISRDNSKNTLYLQMNSLRAEDTAVYYCARDLLVRFLEWSHYYGMDVWGQGTTVTVSSASTKGPSVFPLAPCSRSTSESTAALGCLVKDYFPEPVTVSWNSGALTSGVHTFPAVLQSSGLYSLSSVVTVPSSSLGTKTYTCNVDHKPSNTKVDKRV[no letters for human IgG4 Fc with S228P (EU numbers)]
light: QSVLTQPPSASGTPGQRVTISCSGSSSNIGSNTVHWYQQLPGTAPKLLIYSDNQRPSGVPDRFSGSKSGTSASLAISGLQSEDEADYYCAAWDDSLNGVFGGGTKLTVLGQPKAAPSVTLFPPSSEELQANKATLVCLISDFYPGAVTVAWKADSSPVKAGVETTTPSKQSNNKYAASSYLSLTPEQWKSHRSYSCQVTHEGSTVEKTVAPTECS
notes: also called Ab2 germline
Question: Which results are given for B1?
Answer: Relative CD64 Binding @ EC50 (%) (CD64 (FcgRI)): 5%; Relative C1q Binding @ EC50 (%) (complement component C1q): 8%
